The list shows a part of the results.
How the values were obtained:
Experiment in all cases: glycan array binding signal (z-score within array); higher = stronger binding
Conditions in all cases: glycan notation: IUPAC condensed, linker removed
[1] = biological target: Fuc(a1-2)Gal6S(b1-3)GlcNAc6S
Outline: (§1)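 The binding signal is a Z-score computed within each array and averaged over linkers. Arrays of the same protein sequence at different concentrations or buffers were also averaged together. Data originate from 3228 arrays in the Consortium for Functional Glycomics database, kept only where the protein sequence was available.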

Fuc(a1-2)Gal6S(b1-4)Glc = biological target: Fuc(a1-2)Gal6S(b1-4)Glc
Outline: as §1

[2] = biological target: Fuc(a1-2)Gal6S(b1-4)Glc6S
Outline: as §1

Fuc(a1-2)[Gal(a1-3)]Gal = biological target: Fuc(a1-2)[Gal(a1-3)]Gal
Outline: as §1

[3] = biological target: Fuc(a1-2)[Gal(a1-3)]Gal(b1-3)GalNAc
Outline: as §1

[4] = biological target: Fuc(a1-2)[Gal(a1-3)]Gal(b1-3)GalNAc(b1-3)Gal(a1-4)Gal(b1-4)Glc
Outline: as §1

[5] = biological target: Fuc(a1-2)[Gal(a1-3)]Gal(b1-3)GlcNAc
Outline: as §1

[6] = biological target: Fuc(a1-2)[Gal(a1-3)]Gal(b1-3)GlcNAc(b1-2)Man(a1-3)[Fuc(a1-2)[Gal(a1-3)]Gal(b1-3)GlcNAc(b1-2)Man(a1-6)]Man(b1-4)GlcNAc(b1-4)GlcNAc
Outline: as §1

[7] = biological target: Fuc(a1-2)[Gal(a1-3)]Gal(b1-3)GlcNAc(b1-2)Man(a1-3)[Fuc(a1-2)[Gal(a1-3)]Gal(b1-3)GlcNAc(b1-2)Man(a1-6)]Man(b1-4)GlcNAc(b1-4)[Fuc(a1-6)]GlcNAc
Outline: as §1

[8] = biological target: Fuc(a1-2)[Gal(a1-3)]Gal(b1-3)GlcNAc(b1-3)GalNAc
Outline: as §1

[9] = biological target: Fuc(a1-2)[Gal(a1-3)]Gal(b1-3)GlcNAc(b1-6)GalNAc
Outline: as §1

[10] = biological target: Fuc(a1-2)[Gal(a1-3)]Gal(b1-4)Glc
Outline: as §1

[11] = biological target: Fuc(a1-2)[Gal(a1-3)]Gal(b1-4)GlcNAc
Outline: as §1

[12] = biological target: Fuc(a1-2)[Gal(a1-3)]Gal(b1-4)GlcNAc(b1-2)Man
Outline: as §1

[13] = biological target: Fuc(a1-2)[Gal(a1-3)]Gal(b1-4)GlcNAc(b1-2)Man(a1-3)[Fuc(a1-2)[Gal(a1-3)]Gal(b1-4)GlcNAc(b1-2)Man(a1-6)]Man(b1-4)GlcNAc(b1-4)GlcNAc
Outline: as §1

[14] = biological target: Fuc(a1-2)[Gal(a1-3)]Gal(b1-4)GlcNAc(b1-2)Man(a1-3)[Fuc(a1-2)[Gal(a1-3)]Gal(b1-4)GlcNAc(b1-2)Man(a1-6)]Man(b1-4)GlcNAc(b1-4)[Fuc(a1-6)]GlcNAc
Outline: as §1

[15] = biological target: Fuc(a1-2)[Gal(a1-3)]Gal(b1-4)GlcNAc(b1-3)GalNAc
Outline: as §1

[16] = biological target: Fuc(a1-2)[Gal(a1-3)]Gal(b1-4)GlcNAc(b1-3)[Fuc(a1-2)[Gal(a1-3)]Gal(b1-4)GlcNAc(b1-6)]GalNAc
Outline: as §1

[17] = biological target: Fuc(a1-2)[Gal(a1-3)]Gal(b1-4)GlcNAc(b1-6)GalNAc
Outline: as §1

[18] = biological target: Fuc(a1-2)[Gal(a1-3)]Gal(b1-4)[Fuc(a1-3)]Glc
Outline: as §1

[19] = biological target: Fuc(a1-2)[Gal(a1-3)]Gal(b1-4)[Fuc(a1-3)]GlcNAc
Outline: as §1

[20] = biological target: Fuc(a1-2)[Gal(a1-3)]Gal(b1-4)[Fuc(a1-3)]GlcNAc(b1-3)GalNAc
Outline: as §1

[21] = biological target: Fuc(a1-2)[Gal(a1-4)]Gal(b1-4)GlcNAc
Outline: as §1

[22] = biological target: Fuc(a1-2)[GalNAc(a1-3)]Gal
Outline: as §1

[23] = biological target: Fuc(a1-2)[GalNAc(a1-3)]Gal(b1-3)GalNAc(a1-3)[Fuc(a1-2)]Gal(b1-4)GlcNAc
Outline: as §1

[24] = biological target: Fuc(a1-2)[GalNAc(a1-3)]Gal(b1-3)GalNAc(b1-3)Gal(a1-4)Gal(b1-4)Glc
Outline: as §1

[25] = biological target: Fuc(a1-2)[GalNAc(a1-3)]Gal(b1-3)GlcNAc
Outline: as §1

[26] = biological target: Fuc(a1-2)[GalNAc(a1-3)]Gal(b1-3)GlcNAc(b1-2)Man(a1-3)[Fuc(a1-2)[GalNAc(a1-3)]Gal(b1-3)GlcNAc(b1-2)Man(a1-6)]Man(b1-4)GlcNAc(b1-4)GlcNAc
Outline: as §1

[27] = biological target: Fuc(a1-2)[GalNAc(a1-3)]Gal(b1-3)GlcNAc(b1-2)Man(a1-3)[Fuc(a1-2)[GalNAc(a1-3)]Gal(b1-3)GlcNAc(b1-2)Man(a1-6)]Man(b1-4)GlcNAc(b1-4)[Fuc(a1-6)]GlcNAc
Outline: as §1

[28] = biological target: Fuc(a1-2)[GalNAc(a1-3)]Gal(b1-3)GlcNAc(b1-3)GalNAc
Outline: as §1

[29] = biological target: Fuc(a1-2)[GalNAc(a1-3)]Gal(b1-3)GlcNAc(b1-6)GalNAc
Outline: as §1

[30] = biological target: Fuc(a1-2)[GalNAc(a1-3)]Gal(b1-4)Glc
Outline: as §1

[31] = biological target: Fuc(a1-2)[GalNAc(a1-3)]Gal(b1-4)GlcNAc
Outline: as §1

[32] = biological target: Fuc(a1-2)[GalNAc(a1-3)]Gal(b1-4)GlcNAc(b1-2)Man
Outline: as §1

[33] = biological target: Fuc(a1-2)[GalNAc(a1-3)]Gal(b1-4)GlcNAc(b1-2)Man(a1-3)[Fuc(a1-2)[GalNAc(a1-3)]Gal(b1-4)GlcNAc(b1-2)Man(a1-6)]Man(b1-4)GlcNAc(b1-4)GlcNAc
Outline: as §1

[34] = biological target: Fuc(a1-2)[GalNAc(a1-3)]Gal(b1-4)GlcNAc(b1-2)Man(a1-3)[Fuc(a1-2)[GalNAc(a1-3)]Gal(b1-4)GlcNAc(b1-2)Man(a1-6)]Man(b1-4)GlcNAc(b1-4)[Fuc(a1-6)]GlcNAc
Outline: as §1

[35] = biological target: Fuc(a1-2)[GalNAc(a1-3)]Gal(b1-4)GlcNAc(b1-3)Gal(b1-4)GlcNAc
Outline: as §1

[36] = biological target: Fuc(a1-2)[GalNAc(a1-3)]Gal(b1-4)GlcNAc(b1-3)Gal(b1-4)GlcNAc(b1-3)Gal(b1-4)GlcNAc
Outline: as §1

[37] = biological target: Fuc(a1-2)[GalNAc(a1-3)]Gal(b1-4)GlcNAc(b1-3)GalNAc
Outline: as §1

[38] = biological target: Fuc(a1-2)[GalNAc(a1-3)]Gal(b1-4)GlcNAc(b1-3)[Fuc(a1-2)[GalNAc(a1-3)]Gal(b1-4)GlcNAc(b1-6)]GalNAc
Outline: as §1

[39] = biological target: Fuc(a1-2)[GalNAc(a1-3)]Gal(b1-4)GlcNAc(b1-6)GalNAc
Outline: as §1

[40] = biological target: Fuc(a1-2)[GalNAc(a1-3)]Gal(b1-4)[Fuc(a1-3)]GlcNAc
Outline: as §1

[41] = biological target: Fuc(a1-2)[GalNAc(a1-3)]Gal(b1-4)[Fuc(a1-3)]GlcNAc(b1-3)GalNAc
Outline: as §1

[42] = biological target: Fuc(a1-2)[GalNAc(a1-4)]Gal(b1-4)GlcNAc
Outline: as §1

[43] = biological target: Fuc(a1-2)[GalNAc(b1-3)]Gal
Outline: as §1

B1: Cohesin-hLangerin (Homo sapiens) (protein)
chain: LDDLDAVRIKVDTVNAKPGDTVRIPVRFSGIPSKGIANCDFVYSYDPNVLEIIEIEPGDIIVDPNPDKSFDTAVYPDRKIIVFLFAEDSGTGAYAITKDGVFATIVAKVKEGAPNGLSVIKFVEVGGFANNDLVEQKTQFFDGGANVGDTTEPATPTTPVTTPTTTDDLDAASYPRFMGTISDVKTNVQLLKGRVDNISTLDSEIKKNSDGMEAAGVQIQMVNESLGYVRSQFLKLKTSVEKANAQIQILTRSWEEVSTLNAQIPELKSDLEKASALNTKIRALQGSLENMSKLLKRQNDILQVVSQGWKYFKGNFYYFSLIPKTWYSAEQFCVSRNSHLTSVTSESEQEFLYKTAGGLIYWIGLTKAGMEGDWSWVDDTPFNKVQSARFWIPGEPNNAGNNEHCGNIKAPSLQAWNDAPCDKTFLFICKRPYVPSEPHHHHHH
- glycan array binding signal (z-score) [1]: 1.01
- glycan array binding signal (z-score) (Fuc(a1-2)Gal6S(b1-4)Glc): -0.399
- glycan array binding signal (z-score) [2]: -0.388
- glycan array binding signal (z-score) (Fuc(a1-2)[Gal(a1-3)]Gal): 1.79
- glycan array binding signal (z-score) [3]: -0.369
- glycan array binding signal (z-score) [4]: -0.417
- glycan array binding signal (z-score) [5]: 0.016
- glycan array binding signal (z-score) [6]: 2.29
- glycan array binding signal (z-score) [7]: 3.97
- glycan array binding signal (z-score) [8]: -0.381
- glycan array binding signal (z-score) [9]: -0.238
- glycan array binding signal (z-score) [10]: 0.032
- glycan array binding signal (z-score) [11]: -0.394
- glycan array binding signal (z-score) [12]: -0.228
- glycan array binding signal (z-score) [13]: -0.058
- glycan array binding signal (z-score) [14]: 3.4
- glycan array binding signal (z-score) [15]: -0.401
- glycan array binding signal (z-score) [16]: 1.3
- glycan array binding signal (z-score) [17]: -0.388
- glycan array binding signal (z-score) [18]: -0.413
- glycan array binding signal (z-score) [19]: -0.369
- glycan array binding signal (z-score) [20]: -0.413
- glycan array binding signal (z-score) [21]: -0.301
- glycan array binding signal (z-score) [22]: 0.937
- glycan array binding signal (z-score) [23]: -0.411
- glycan array binding signal (z-score) [24]: -0.26
- glycan array binding signal (z-score) [25]: -0.259
- glycan array binding signal (z-score) [26]: 0.326
- glycan array binding signal (z-score) [27]: 2.27
- glycan array binding signal (z-score) [28]: -0.219
- glycan array binding signal (z-score) [29]: -0.272
- glycan array binding signal (z-score) [30]: -0.427
- glycan array binding signal (z-score) [31]: -0.42
- glycan array binding signal (z-score) [32]: -0.405
- glycan array binding signal (z-score) [33]: -0.293
- glycan array binding signal (z-score) [34]: 3.72
- glycan array binding signal (z-score) [35]: -0.419
- glycan array binding signal (z-score) [36]: 0.123
- glycan array binding signal (z-score) [37]: -0.406
- glycan array binding signal (z-score) [38]: -0.362
- glycan array binding signal (z-score) [39]: -0.215
- glycan array binding signal (z-score) [40]: -0.305
- glycan array binding signal (z-score) [41]: -0.388
- glycan array binding signal (z-score) [42]: -0.271
- glycan array binding signal (z-score) [43]: -0.185

— the supplement of paper PMC8728848
